In PubChem BioAssay AID463173 (ICCB-Longwood Screening Facility, Harvard Medical School, 2010):
Out of some 52,000 compounds screened, about 1,700 (3.3%) were called active. No stated cut-off is given here; in the data, active means survival mostly below about 52% (no sharp cut-off); inactive means mostly above about 56%. The list shows a part of the results.

test system: Wild type; assay: growth inhibition of S. aureus wild type versus tarO mutant, primary screen, teichoic acid synthesis inhibitors, RN4220, OD600 (AID 463173); settings: S. aureus RN4220 wild type/DeltatarO growth, OD600, 18 h, hits give low values, screened at 18.75 µg/mL (by protocol)

| Structure (SMILES) | survival |
| --- | --- |
| O=C(CCN1CCOCC1)N1N=C(c2ccccc2)CC1c1ccco1 (stereo unspecified) | inactive: 104% |
| Cc1ccc(C)c(CSc2ccc3nnc(CCNS(=O)(=O)c4ccccc4)n3n2)c1 | inactive: 85% |
| O=C(O)CN1CC(=O)NC1=O | inactive: 96% |
| COc1ccc(OC)c(Nc2ncnc3c2cnn3-c2cccc(Cl)c2)c1 | inactive: 64% |
| Cc1ccn2c(Nc3ccc(F)cc3)c(-c3ccccn3)nc2c1 | inactive: 79% |
| O=C(Cn1nc(-c2ccccc2)nc(Cc2ccccc2)c1=O)Nc1ccccc1 | inactive: 72% |
| CCCCC(=O)OC1=C(C(C)=O)N(Cc2ccccc2)S(=O)(=O)c2ccccc21 | inactive: 71% |
| CCN(CC)CCNC(=O)C1CCN(c2cc(C)nc3c(-c4ccc(Cl)cc4)c(C)nn23)CC1 | inactive: 118% |
| Cc1ccc(NS(=O)(=O)c2cnc(N)nc2)c(C)c1 | inactive: 55% |
| O=C(NCCc1nc2ccccc2n1Cc1ccccc1)c1ccco1 | inactive: 121% |
| Nc1nsnc1C(=O)NCCO | inactive: 92% |
| CCc1nn(CC(=O)Nc2cc(C)cc(C)c2)c(=O)c2cc3sccc3n12 | inactive: 69% |
| Cc1nc(-n2nc(C)c(Cc3ccc4c(c3)OCO4)c2C)sc1C(=O)Nc1cccc(Cl)c1 | inactive: 75% |
| CCN(CC)CCNC(=O)c1cc(-c2ccc(Br)s2)nc2ccccc12 | inactive: 35% |
| Cc1ccc(CN2CCCn3nc(C(=O)NCc4ccc(OC(C)C)cc4)cc3C2=O)cc1 | inactive: 84% |
| CSc1cccc(NC(=O)CC(c2cccs2)N2Cc3ccccc3C2=O)c1 (stereo unspecified) | inactive: 118% |
| COc1cc(-c2noc(CN3CCN(c4cccc(Cl)c4)CC3)n2)cc(OC)c1OC | inactive: 81% |
| CCOc1ccccc1NC(=O)N1CCN(C)c2ncccc21 | inactive: 75% |
| Cc1ccc(NC(=O)CSc2n[nH]c(-c3ccc(F)cc3)n2)cc1F | inactive: 121% |
| CCc1ccc2c(c1)c1nnc(SCC(=O)NC3CCCCC3C)nc1n2C (stereo unspecified) | inactive: 108% |
| CCOC(=O)c1cccc(NC(=O)c2ccc3nc(C(C)C)oc3c2)c1 | inactive: 93% |
| COc1ccc2nc(NC(=O)c3nc(S(=O)(=O)Cc4ccccc4)ncc3Cl)sc2c1 | inactive: 87% |
| CSc1ccc(CCNC(=O)CCc2c(C)nc3c(c(C)nn3-c3ccc(C)c(C)c3)c2C)cc1 | inactive: 77% |
| Cc1cc2nc(-c3ccc(SCC#N)nc3)[nH]c2cc1C | inactive: 123% |
| Cc1ccc(CN2C(=O)CN(C3CCC(C)CC3)C(=O)C2c2ccc(F)cc2)cc1 (stereo unspecified) | inactive: 119% |
| CCC(C(=O)Nc1nnc2n1CCS2)c1ccccc1 (stereo unspecified) | inactive: 66% |
